Results on 2 molecules are retold here after patent EP4582447A1 (Quaerite Biopharm Research (Beijing) Co., Ltd., dated 2025).

Assay [1] concerns the target T1, Human VEGFA165 (human, UniProt P15692-4 27-191).
T1 construct: treated as the same molecule; also called antigen VEGFA
T1 sequence (looked up): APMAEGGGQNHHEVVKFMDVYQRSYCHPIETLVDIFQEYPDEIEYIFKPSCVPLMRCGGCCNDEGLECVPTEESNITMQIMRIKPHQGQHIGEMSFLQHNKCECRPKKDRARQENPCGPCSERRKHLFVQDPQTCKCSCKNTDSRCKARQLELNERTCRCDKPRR
Kind of assay: SPR Biacore 8K, V1-SA1-Fc-m1 captured on Protein A chip, VEGFA165 as analyte, 1:1 model.

The target of assay [2] is T1, Human VEGFA165. Kind of assay: ELISA, VEGFA coated 0.3 µg/mL, anti-His detection. A general note: ELISA stands for enzyme-linked immunosorbent assay.

B1: V1-SA1-Fc-m1 (Fc fusion)
chain: EVQLVESGGGLVQPGGSLRLSCAVSGRTFSSYTMGWFRQAPGKEREFVVAISKGGYKYDSVSLEARFTISRDNAKNTVYLQMNSLRPEDTAVYYCAATRAYGSSRLRLADTYEYWGQGTLVTVSS[… human IgG1 Fc with changes …]
notes: no histidine tag, no additional amino acids at the C terminus; also called V1-SAI-Fc-m1; monovalent nanobody-Fc fusion protein (V1-SA1-Fc-m1)
Broadly, the Kd is the equilibrium constant for the complex coming apart. The term koff denotes the first-order rate constant of dissociation. As usually defined, the kon is the rate constant with which the complex forms. Read a high kon as faster complex formation. In assay [1], B1 registered a dissociation constant Kd of 0.148 nM, an off-rate constant (koff) of 0.00013 s⁻¹ and a kon of 877000 M⁻¹ s⁻¹.

B2: V15-9GS-PPCP-Fc (Fc fusion)
chain: QLQLVESGGGSVQPGGSLRLSCEVSGRTFASYTMGWFRQAPGKEREFVVAISKGGYKYDSVSLEARFTISKDNTKNTVYLQMNSLKPEDTAVYYCAGTRAYGSSRLRLAETYEYWGQGTQVTVSSGGGGSGGGS[… human IgG1 Fc …]SGGSHHHHHH
The EC50 is the concentration needed to bring the measured effect to its halfway point. A high value points to lower potency in that assay. On to B2, for which the 50% effective concentration (EC50) in assay [2] stood at 0.35 nM.
